Experimental data reported in the supplement of paper PMC11060735.
Structures can show the parent of a compound that is named as a salt. In all, about 1,800 compounds went through this assay and about 50 (3%) showed activity. The list shows a part of the results.

The compounds below were run on mouse p16Ink4a+/- lung fibroblasts (INKBRITE, bleomycin-injured) (assay: percentage of GFP+ (p16Ink4a+) fibroblasts among all cells in well; higher = less depletion of p16Ink4a+ cells, active = 20 or less). Conditions: 1 µM; 3 days.
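Further: fibroblasts sorted 14 days after bleomycin, GFP+ and GFP− mixed 1:1 in 384-well plates (GFP− as in-well control), imaged after Hoechst and NucView530 staining, reference wells lacked compound.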

SMILES	percentage of GFP+
N#C[C@@H]1C[C@@H]2C[C@@H]2N1C(=O)[C@@H](N)C12CC3CC(CC(O)(C3)C1)C2 [Saxagliptin]	inactive: 46.3%
CCCCN1CCCCC1C(=O)Nc1c(C)cccc1C (centres undefined) [Bupivacaine]	inactive: 42.9%
CC(C)[C@H](N)C(=O)OCC(CO)OCN1C=NC2C(=O)NC(N)=NC21 (some centres undefined) [Valganciclovir HCl]	inactive: 50.2%
Cc1ccc(Cl)cc1N(CC(=O)Nc1c(F)cccc1F)S(C)(=O)=O	inactive: 43.1%
O=C1NC(=O)/C(=C/c2cccc(C(F)(F)F)c2)S1	inactive: 46.2%
O=Nc1c(-c2c(O)[nH]c3cc(Br)ccc23)[nH]c2ccccc12 [(3e)-6'-Bromo-2,3'-Biindole-2',3(1h,1'h)-Dione 3-Oxime]	inactive: 42.5%
CC(=O)Nc1nc(C)c(-c2ccc(Cl)c(S(=O)(=O)NCCO)c2)s1	inactive: 30.1%
CC(=O)C1=C(O)C=C2Oc3c(C(C)=O)c(O)c(C)c(O)c3[C@]2(C)C1=O [(+)-Usniacin]	inactive: 45.5%
C#Cc1cccc(Nc2ncnc3cc4c(cc23)OCCOCCOCCO4)c1 [Icotinib]	inactive: 52.7%
CC(C)C[C@@H](C(=O)N[C@H](C(=O)OC1CCCC1)c1ccccc1)[C@H](O)C(=O)NO [Tosedostat]	inactive: 44.6%
Cc1nnc(C(C)C)n1C1CC2CCC(C1)N2CC[C@H](NC(=O)C1CCC(F)(F)CC1)c1ccccc1 (some centres undefined) [Maraviroc]	inactive: 35.4%
Cn1c(N2CCCCS2(=O)=O)nc(C(=O)NCc2ccc(F)cc2)c(O)c1=O	inactive: 26.4%
NC(Cc1c[nH]c2ccc(O)cc12)C(=O)O (centres undefined) [5-hydroxytryptophan (5-HTP)]	inactive: 41.1%
COC1=C(OC)C(=O)C(CCCCCCCCCCO)=C(C)C1=O [Idebenone]	inactive: 43.7%
C[C@H](N[C@@H](CCc1ccccc1)C(=O)O)C(=O)N1CCC[C@H]1C(=O)O [Enalaprilat]	inactive: 36.7%
CCc1ccc(OCc2ccccc2C(=O)Nc2ccc3nc(C)cc(N)c3c2)cc1	inactive: 51.7%
CO/C(O)=C1\C(C)=NC(C)=C(C(=O)OCCN(C)Cc2ccccc2)C1c1cccc([N+](=O)[O-])c1 (centres undefined) [Nicardipine]	inactive: 50.2%
O=C1CC(=O)c2c(Cl)c(Cl)c(Cl)c(Cl)c21	inactive: 39.4%
CC(C)NCC(O)COc1ccc(CCOCC2CC2)cc1 (centres undefined) [Betaxolol]	inactive: 50.1%
CC1(C)CCC(C)(C)c2cc(NC(=O)c3ccc(C(=O)O)cc3)ccc21 [Tamibarotene]	inactive: 28.2%
CC(=O)NC[C@H]1CN(c2ccc(N3CCOCC3)c(F)c2)C(=O)O1 [Linezolid]	inactive: 52.5%
CN(C)C(=O)Nc1cccc(-c2ccc(N(C)C)cc2)c1 [Atglistatin]	inactive: 48.3%

SMILES	percentage of GFP+
CC(=O)Nc1ccc(NC(=S)NC(=O)c2ccc(C(C)(C)C)cc2)cc1 [Tenovin-1]	inactive: 52.2%
Cc1cn([C@H]2O[C@@H](CO)[C@H](O)[C@H]2F)c(=O)[nH]c1=O [Clevudine]	inactive: 43.3%
O=c1ncn2nc(Sc3ccc(F)cc3F)ccc2c1-c1c(Cl)cccc1Cl	inactive: 44.8%
CC[C@H](/C=C/[C@@H](C)[C@@H]1CC[C@H]2[C@@H]3CC=C4C[C@@H](O)CC[C@]4(C)[C@@H]3CC[C@@]21C)C(C)C [Stigmasterol]	inactive: 44.8%
O=C(O)c1cn(-c2ccc(F)cc2)c2cc(N3CCNCC3)c(F)cc2c1=O [Sarafloxacin]	inactive: 31.1%
CCCCCCCCCCCCCCCC[n+]1ccn(Cc2ccccc2)c1C	inactive: 29.6%
c1ccc(-c2ccc(C(c3ccccc3)n3ccnc3)cc2)cc1 (centres undefined) [Bifonazole]	inactive: 38.8%
O=S(=O)(c1cccc2cnccc12)N1CCCNCC1 [Fasudil Hydrochloride]	inactive: 48.7%
Nc1nc(O)c2ncn(COC(CO)CO)c2n1 [Ganciclovir]	inactive: 38.1%
Cc1cc(O)c2c(c1)C(=O)c1cccc(O)c1C2=O [Chrysophanol]	inactive: 47.4%
C=C[C@]1(C)C[C@@H](OC(=O)CSC(C)(C)CNC(=O)[C@H](N)C(C)C)[C@]2(C)[C@H](C)CC[C@]3(CCC(=O)[C@H]32)[C@@H](C)[C@@H]1O [Valnemulin HCl]	inactive: 54.6%
CC(=O)Nc1cccc(-n2c(=O)n(C3CC3)c(=O)c3c(Nc4ccc(I)cc4F)n(C)c(=O)c(C)c32)c1 [Trametinib]	inactive: 27.8%
CNS(=O)(=O)CCc1ccc2[nH]cc(C3CCN(C)CC3)c2c1 [Naratriptan]	inactive: 47.4%
COCCCC/C(=N\OCCN)c1ccc(C(F)(F)F)cc1 [Fluvoxamine]	inactive: 46.9%
CC(=O)Oc1ccccc1C(=O)O [Acetylsalicylic acid]	inactive: 52.8%
Nc1nnc(-c2cccc(Cl)c2Cl)c(N)n1 [Lamotrigine]	inactive: 49.9%
Cc1cn([C@@H]2C[C@@H](O)[C@H](CO)O2)c(=O)[nH]c1=O [Telbivudine]	inactive: 44.5%
CCOc1nc2cccc(C(=O)OC(C)OC(=O)OC3CCCCC3)c2n1Cc1ccc(-c2ccccc2-c2nn[nH]n2)cc1 (centres undefined) [Candesartan Cilextil]	inactive: 44.8%
Cc1ccc(NCCCc2ccccc2)c(N)c1	inactive: 46.1%
CN1CC(=O)N2[C@H](c3ccc4c(c3)OCO4)c3[nH]c4ccccc4c3C[C@@H]2C1=O [Tadalafil]	inactive: 40.4%
CO[C@H]1/C=C/O[C@@]2(C)Oc3c(C)c(O)c4c(O)c(c5c(c4c3C2=O)=NC2(CCN(CC(C)C)CC2)N=5)NC(=O)/C(C)=C\C=C\[C@H](C)[C@H](O)[C@@H](C)[C@@H](O)[C@@H](C)[C@H](OC(C)=O)[C@@H]1C [Rifabutin]	inactive: 39.9%
COc1cccc2c1C(=O)c1c(O)c3c(c(O)c1C2=O)C[C@@](O)(C(=O)CO)C[C@@H]3O[C@H]1C[C@H](N)[C@H](O)[C@H](C)O1 [Doxorubicin]	inactive: 25.2%
